Data published in patent US20260176344A1 (SUZHOU ALPHAMAB, published 2026).
Where two headings read alike, the source gives them in different places.

T1: GIPR-ECD-chis (a his tag-fused human GIPR extracellular region fragment) (human, UniProt P48546 22-138, limits assumed)
T1 construct: extracellular domain; not shown: his tag
T1 sequence (looked up): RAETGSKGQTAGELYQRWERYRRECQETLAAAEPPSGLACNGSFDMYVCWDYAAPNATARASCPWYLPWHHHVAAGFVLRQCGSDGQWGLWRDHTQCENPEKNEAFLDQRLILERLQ

T2: human GIPR expressed on HEK293T cells (human, UniProt P48546 22-466)
T2 construct: whole, on cells; Two cell lines are used (293T-GIPR; 293T-GIPRFL-GFP-PURO-5, stably expressing full-length human GIPR on the membrane); both are treated as human GIPR on cells; also called 293T-GIPR; 293T-GIPRFL-GFP-PURO-5
T2 sequence (looked up): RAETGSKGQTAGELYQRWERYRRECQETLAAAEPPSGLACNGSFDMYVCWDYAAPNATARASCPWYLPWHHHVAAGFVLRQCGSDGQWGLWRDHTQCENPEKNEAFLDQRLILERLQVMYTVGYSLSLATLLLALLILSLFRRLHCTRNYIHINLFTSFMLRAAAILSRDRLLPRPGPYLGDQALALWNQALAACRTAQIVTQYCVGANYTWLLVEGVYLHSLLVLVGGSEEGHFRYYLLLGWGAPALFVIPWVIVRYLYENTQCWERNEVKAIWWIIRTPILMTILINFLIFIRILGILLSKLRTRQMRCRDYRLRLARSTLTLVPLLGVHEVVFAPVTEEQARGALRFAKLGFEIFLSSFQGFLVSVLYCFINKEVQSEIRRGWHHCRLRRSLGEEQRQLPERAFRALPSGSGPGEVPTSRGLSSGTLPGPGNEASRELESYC


Tests used:
[1] = target: T1, GIPR-ECD-chis (a his tag-fused human …); assay: BLI, Fc fusion on AHC sensor, GIPR-ECD-chis in solution
[2] = target: T2, human GIPR expressed on HEK293T cells; assay: flow cytometry on 293T-GIPR cells, 100 µg/mL, anti-human IgG-APC
[3] = target: T2, human GIPR expressed on HEK293T cells; assay: cell-based or functional assay
[4] = target: T2, human GIPR expressed on HEK293T cells; assay: flow cytometry on 293T-GIPR cells, 10 µg/mL, anti-human IgG-APC
[5] = target: T1, GIPR-ECD-chis (a his tag-fused human …); assay: BLI, Fc fusion on AHC sensor, GIPR-ECD-chis in solution; remark: listed apart in the source
[6] = target: T1, GIPR-ECD-chis (a his tag-fused human …); assay: as above; remark: listed apart in the source
[7] = target: T1, GIPR-ECD-chis (a his tag-fused human …); assay: as above; remark: listed apart in the source

Binder | Kd [1] | koff [1] | kon [1] | Kd [6] | koff [6] | kon [6] | other results
huGI-72v1-Ld-Fc (Fc fusion, also called huG1-72v1 (VHH part)) EVQLVESGGGLVQPGGSLRLSCAASRYTLDYYAIGWFRQAPGKEREGVSCINSKDGSTYYADSVKGRFTISKDNSKNTVYLQMNSLRAEDTAVYYCAAGYDPWSGIPPVQAMCVMGYDYWGQGTLVTVSS[human IgG1 Fc not written out] | 1.17 nM | 0.00026 s⁻¹ | 223000 M⁻¹ s⁻¹ |  |  |  | 
huGI-72v3-Ld-Fc (Fc fusion, also called huG1-72v3 (VHH part)) EVQLVESGGGLVQPGGSLRLSCAASRYTLDYYAIGWFRQAPGKGLEGVSCINSKDGSTYYADSVKGRFTISKDNSKNTVYLQMNSLRAEDTAVYYCAAGYDPWSGIPPVQAMCVMGYDYWGQGTLVTVSS[human IgG1 Fc not written out] | 1.56 nM | 0.000256 s⁻¹ | 164000 M⁻¹ s⁻¹ |  |  |  | 
huGI-72v7-Ld-Fc (Fc fusion, also called huG1-72v7 (VHH part)) QVQLVESGGGLVQPGGSLRLSCSASRYTLDYYAIGWFRQAPGKGLEGVSCINSKDGSTYYADSVKGRFTISKDNSKNTVYLQMNSLRAEDTAVYYCAAGYDPWSGIPPVQAMCVMGYDYWGQGTLVTVSS[human IgG1 Fc not written out] | 1.53 nM | 0.000276 s⁻¹ | 180000 M⁻¹ s⁻¹ |  |  |  | 
iGI-51-Ld-Fc (Fc fusion) QVQLVESGGKLVQAGGSLRLDCVASGRTFSYYAIGWYRQAPGKEREFVAAIRASGGSTYYADSVKGRFTASRDNAKNTGYLQMNSLKPEDTAVYFCYAATIVPITPSTHGYWGQGTQVTVSS[human IgG1 Fc not written out] |  |  |  |  |  |  | MFI [2]: 5520 MFI; MEAN cAMP expression level (pM), +100 ng/mL GIP-C12H4-Fc4, fusion protein 0.1 µg/mL [3]: 112 pM; MEAN cAMP expression level (pM), +100 ng/mL GIP-C12H4-Fc4, fusion protein 1 µg/mL [3]: 109 pM; MEAN cAMP expression level (pM), +100 ng/mL GIP-C12H4-Fc4, fusion protein 10 µg/mL [3]: 137 pM; MFI [4]: 5960 MFI
iGI-1198-Ld-Fc (Fc fusion) QVQLQESGGGLVQPGGSLRLSCVASGSGFSIVAMGWYRQTPGKQRELVAAITSGGNTNYADSVKGRFTISRDNAKNTIYLQMNSLKPEDTAVYYCNADPGVVAGPYAGMDFWGKGTQVTVSS[human IgG1 Fc not written out] |  |  |  | 3.5 nM | 0.000222 s⁻¹ | 63400 M⁻¹ s⁻¹ | koff [5]: 0.000156 s⁻¹; kon [5]: 83900 M⁻¹ s⁻¹; Kd [7]: 1.86 nM; koff [7]: 0.000156 s⁻¹; kon [7]: 83900 M⁻¹ s⁻¹
huGI-1198n6-Ld-Fc (Fc fusion, also called huG1-1198n6 (VHH part)) QVQLQESGGGLVQPGGSLRLSCSASGSGFSIVAMGWVRQTPGKQRELVAAITSGGNTNYADSVKGRFTISRDNAKNTIYLQMNSLKPEDTAVYYCNADPGVVAGPYAGMDFWGKGTTVTVSS[human IgG1 Fc not written out] |  |  |  |  |  |  | Kd [5]: 2.83 nM; koff [5]: 0.000242 s⁻¹; kon [5]: 85500 M⁻¹ s⁻¹
huGI-1198n8-Ld-Fc (Fc fusion, also called huG1-1198n8 (VHH part)) QVQLQESGGGLVQPGGSLRLSCSASGSGFSIVAMGWYRQTPGKGLELVAAITSGGNTNYADSVKGRFTISRDNSKNTIYLQMNSLRAEDTAVYYCNADPGVVAGPYAGMDFWGKGTTVTVSS[human IgG1 Fc not written out] |  |  |  | 2.94 nM | 0.000218 s⁻¹ | 74200 M⁻¹ s⁻¹ | 
huGI-1198n11-Ld-Fc (Fc fusion, also called huG1-1198n11 (VHH part)) QVQLQESGGGLVQPGGSLRLSCSASGSGFSIVAMGWYRQTPGKQRELVAAITSGGNTNYADSVKGRFTISRDNAKNTIYLQMNSLKPEDTAVYYCNADPGVVAGPYAGMDFWGKGTTVTVSS[human IgG1 Fc not written out] |  |  |  | 5.1 nM | 0.000379 s⁻¹ | 74400 M⁻¹ s⁻¹ | 
huGI-1198n5-Ld-Fc (Fc fusion, also called huG1-1198n5 (VHH part)) QVQLQESGGGLVQPGGSLRLSCSASGSGFSIVAMGWVRQTPGKQRELVAAITSGGNTNYADSVKGRFTISRDNAKNTIYLQMNSLRAEDTAVYYCNADPGVVAGPYAGMDFWGKGTTVTVSS[human IgG1 Fc not written out] |  |  |  |  |  |  | Kd [5]: 2.09 nM; koff [5]: 0.000169 s⁻¹; kon [5]: 81000 M⁻¹ s⁻¹
huGI-1198n4-Ld-Fc (Fc fusion, also called huG1-1198n4 (VHH part)) QVQLVESGGGLVQPGGSLRLSCSASGSGFSIVAMGWVRQAPGKQRELVAAITSGGNTNYADSVKGRFTISRDNSKNTIYLQMNSLRAEDTAVYYCNADPGVVAGPYAGMDFWGKGTTVTVSS[human IgG1 Fc not written out] |  |  |  |  |  |  | Kd [5]: 2.32 nM; koff [5]: 0.000205 s⁻¹; kon [5]: 88100 M⁻¹ s⁻¹
iGI-9-Ld-Fc (Fc fusion, also called iGl-9-Ld-Fc) QVQLVESGGGLVQPGGSLRLSCETSKILFSSAYTMGWYRQAPGKQRELVATITTDYITNYVDSVKGRFTISRDNAKNTVYLQMNTLKLEDTAVYYCNARWGRDYWGQGTQVTVSS[human IgG1 Fc not written out] |  |  |  |  |  |  | MFI [2]: 6500 MFI; MEAN cAMP expression level (pM), +100 ng/mL GIP-C12H4-Fc4, fusion protein 0.1 µg/mL [3]: 92.9 pM; MEAN cAMP expression level (pM), +100 ng/mL GIP-C12H4-Fc4, fusion protein 1 µg/mL [3]: 125 pM; MEAN cAMP expression level (pM), +100 ng/mL GIP-C12H4-Fc4, fusion protein 10 µg/mL [3]: 114 pM; MFI [4]: 6320 MFI
iGI-44-Ld-Fc (Fc fusion) QVQLVESGGGLVQAGGSLKLSCAASGRTFSSKAMGWFRQAPGKEREFVAAINWSGDRTYHVNSIKGRFTISRDNAKNTVYLQMNSLKPEDTAVYYCTADRRDRATIPFQWHYWGQGTQVTVSS[human IgG1 Fc not written out] |  |  |  |  |  |  | MFI [2]: 6290 MFI; MEAN cAMP expression level (pM), +100 ng/mL GIP-C12H4-Fc4, fusion protein 0.1 µg/mL [3]: 131 pM; MEAN cAMP expression level (pM), +100 ng/mL GIP-C12H4-Fc4, fusion protein 1 µg/mL [3]: 114 pM; MEAN cAMP expression level (pM), +100 ng/mL GIP-C12H4-Fc4, fusion protein 10 µg/mL [3]: 122 pM; MFI [4]: 6580 MFI
iGI-27-Ld-Fc (Fc fusion) QVQLVESGGALVQTGGSLRLFCAASGDTICITNMNWYRQAPGKGREFVAAITRSGRTLYADYVKGRFTISRDNARNTMSLQMNSMTSEDTAVYYCNADQNQTICAAEPSAWGRGTQVTVSS[human IgG1 Fc not written out] |  |  |  |  |  |  | MFI [2]: 217 MFI; MFI [4]: 190 MFI

Now from value to binder, other results behind:

Kd [1] | koff [1] | kon [1] | Kd [6] | koff [6] | kon [6] | Binder | other results
1.23 nM | 0.000283 s⁻¹ | 230000 M⁻¹ s⁻¹ |  |  |  | huGI-72v6-Ld-Fc (Fc fusion, also called huG1-72v6 (VHH part)) QVQLVESGGGLVQPGGSLRLSCSASRYTLDYYAIGWFRQAPGKEREGVSCINSKDGSTYYADSVKGRFTISRDNSKNTVYLQMNSLRAEDTAVYYCAAGYDPWSGIPPVQAMCVMGYDYWGQGTLVTVSS[human IgG1 Fc not written out] | 
0.716 nM | 0.000119 s⁻¹ | 166000 M⁻¹ s⁻¹ |  |  |  | huGI-72v4-Ld-Fc (Fc fusion, also called huG1-72v4 (VHH part)) EVQLVESGGGLVQPGGSLRLSCAASRYTLDYYAIGWFRQAPGKGLEGVSCINSKDGSTYYADSVKGRFTISRDNSKNTVYLQMNSLRAEDTAVYYCAAGYDPWSGIPPVQAMCVMGYDYWGQGTLVTVSS[human IgG1 Fc not written out] | 
1.74 nM | 0.00037 s⁻¹ | 212000 M⁻¹ s⁻¹ |  |  |  | huGI-72v2-Ld-Fc (Fc fusion, also called huG1-72v2 (VHH part)) EVQLVESGGGLVQPGGSLRLSCAASRYTLDYYAIGWFRQAPGKEREGVSCINSKDGSTYYADSVKGRFTISRDNSKNTVYLQMNSLRAEDTAVYYCAAGYDPWSGIPPVQAMCVMGYDYWGQGTLVTVSS[human IgG1 Fc not written out] | 
 |  |  | 2.46 nM | 0.0002 s⁻¹ | 81400 M⁻¹ s⁻¹ | huGI-1198n7-Ld-Fc (Fc fusion, also called huG1-1198n7 (VHH part)) QVQLVESGGGLVQPGGSLRLSCSASGSGFSIVAMGWYRQTPGKGLELVAAITSGGNTNYADSVKGRFTISRDNSKNTIYLQMNSLRAEDTAVYYCNADPGVVAGPYAGMDFWGKGTTVTVSS[human IgG1 Fc not written out] | 
 |  |  | 3.7 nM | 0.000252 s⁻¹ | 68000 M⁻¹ s⁻¹ | huGI-1198n9-Ld-Fc (Fc fusion, also called huG1-1198n9 (VHH part)) QVQLVESGGGLVQPGGSLRLSCSASGSGFSIVAMGWYRQTPGKQRELVAAITSGGNTNYADSVKGRFTISRDNSKNTIYLQMNSLRAEDTAVYYCNADPGVVAGPYAGMDFWGKGTTVTVSS[human IgG1 Fc not written out] | 
 |  |  | 5.42 nM | 0.000359 s⁻¹ | 66300 M⁻¹ s⁻¹ | huGI-1198n10-Ld-Fc (Fc fusion, also called huG1-1198n10 (VHH part)) QVQLQESGGGLVQPGGSLRLSCSASGSGFSIVAMGWYRQTPGKQRELVAAITSGGNTNYADSVKGRFTISRDNAKNTIYLQMNSLRAEDTAVYYCNADPGVVAGPYAGMDFWGKGTTVTVSS[human IgG1 Fc not written out] | 
